# According to the supplement of paper PMC11417369:
# ± gives the standard deviation of the averaged measurements. The list shows a part of the results.
# System: PfAP2-LT AP2 domain (GST-tagged)
# Test: gcPBM binding intensity (ln(normalized median fluorescence intensity)); higher = stronger DNA binding
# Summary of the method: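 An Agilent 4 × 180k array carrying primer-extended double-stranded 36-bp intergenic genomic probes and negative controls received GST-tagged P. falciparum DNA-binding domains expressed in E. coli, about 25 μg on average, for 1 h. The binding buffer contained 1× PBS, 1% milk, 0.2 mg/ml BSA, 0.5% salmon testes DNA and 0.03% Triton X-100. Binding intensity is the top Masliner-normalised natural-log median intensity across replicate spots of either probe orientation, read after Alexa488 anti-GST antibody staining and a 488 nm scan.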
row,Sequence,gcPBM binding intensity (ln)
1,ATAGATATAACATATGCATGTAAAATATAACCACTC [TGCATGCA_site60],9.17 ± 0.42
2,TGTGCGGAAATAAGTGCACACATAGATATATGTATT [CACACA_site9227],9.38 ± 0.44
3,ACATATTTATATGTCTGTACAAATATGCAATTTTTT [XGTACX_site5516],8.77 ± 0.47
4,AATTTATAAATAATTAATTTGATAAATTATAAAGGG [GTGCAC_negctrl_site544],8.45 ± 0.45
5,TTAGATAGATTTGTACGTACTTATTATAACGTATCA [XGTACX_site5067],8.69 ± 0.39
6,ATATTTATAACTTGGTGTACTTTGAAAAAAAAAAAA [XGTACX_site5194],8.27 ± 0.37
7,AAAAAAAAAAAAAACACACATACATACATACATATA [CACACA_site4121],9.13 ± 0.38
8,ATAATTTTTTAGATCACACATATAAATAAATAAATA [CACACA_site5175],8.44 ± 0.59
9,TTATATTAGCCGATGGTGCATATATTTATAGGAAAA [GTGCAC_site9518],8.41 ± 0.55
10,AAAAAAATTAAATGGGGTACAATAAGGGTCAAATAT [XGTACX_site8669],9.05 ± 0.47
11,GGATAATCATACGAAGCATGCTGAATTTCCAAATAA [TGCATGCA_site1013],8.89 ± 0.48
12,TTTTATTATATATATTGTACATATATTTTTATTTTT [XGTACX_site1564],8.77 ± 0.42
13,AAAAAAAAAAATGGCTGTACATAATATTTAAATAGG [XGTACX_site4286],8.72 ± 0.46
14,TACTGTATTATAATTATGATTGACGAAATTAAAAAT [GTGCAC_negctrl_site358],8.53 ± 0.42
15,ATTAGAAAAAAGATAGCACACACGGCCCAATATATA [CACACA_site2417],9.24 ± 0.42
16,TGAAATTTATAATAGTGTACAAAGAAAAAAAAAAAA [XGTACX_site4965],8.65 ± 0.6
17,AAGGTTATATAAAAAAGTACGCATAAGATGTTGTTC [XGTACX_site807],8.88 ± 0.43
18,CAATATAAAATAAAATGTACTTGTAGTAAAGGGATA [XGTACX_site1452],9.03 ± 0.51
19,ATAAAGGTTTTCCAAGCATGCCACATAGTGACATAC [TGCATGCA_site193],8.64 ± 0.39
20,AGATAGATACATACACGTACATATATATATACACAT [XGTACX_site4755],9.18 ± 0.35
21,GATGAGGACAAACACACACACATAAGTTGATACATA [CACACA_site3424],9.68 ± 0.39
22,TTTATGGATGTGTATGCATGCCTAAATAAATATATG [TGCATGCA_site916],8.79 ± 0.41
23,TAAATAATGTAAAAAACATCATCAAAATGTTAATTA [CACACA_negctrl_site1768],8.45 ± 0.51
24,TCTCAAAAAAAAAAAAAAAAAAAAAAATTAAAAAAT [CACACA_negctrl_site1120],8.22 ± 0.51
